The results in this text go back to the supplement of paper PMC9446081.

Out of some 39,000 compounds screened, about 220 (0.56%) showed activity. The list shows a part of the results.
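Further: static incubation at 37 °C against the wild-type strain, values averaged over two biological replicates.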

The test system of the assay is Escherichia coli K-12 BW25113. Description: relative growth (OD600 normalised to plate interquartile mean) (fraction); higher = less growth inhibition, active = 0.2 or less. To be noted: 50 µM; LB; incubation time: overnight (16-24 h).
Take `C[C@@H]1CN([C@@H](C)CO)C(=O)c2cc(Br)cnc2O[C@H]1CN(C)S(=O)(=O)c1cccs1`: the relative growth is inactive: 1.02.

In the case of `C[C@H](CO)N1C[C@H](C)[C@@H](CN(C)C(=O)c2cccc(F)c2)Oc2cc(-c3cncnc3)ccc2S1(=O)=O`, the relative growth is inactive: 1.01.

`C[C@@H]1CN([C@@H](C)CO)C(=O)c2cc(NS(=O)(=O)c3ccc(Cl)cc3)ccc2O[C@@H](C)CCCCO[C@H]1CN(C)S(=O)(=O)c1ccc(F)cc1`: the relative growth is inactive: 1.02.

Take `C[C@H](CO)N1C[C@H](C)[C@H](CN(C)CC2CCCCC2)Oc2c(NC(=O)Nc3cccc4ccccc34)cccc2C1=O`: the relative growth was inactive: 1.

As for `Cc1ccc(S(=O)(=O)Nc2ccc3c(c2)C(=O)N([C@@H](C)CO)C[C@@H](C)[C@@H](CN(C)CC2CC2)O3)cc1`, the relative growth was inactive: 1.01.

For the compound `C[C@H]1CN([C@@H](C)CO)C(=O)c2cc(NC(=O)Cc3cn(C)c4ccccc34)ccc2O[C@@H]1CN(C)C(=O)Nc1ccc(C(F)(F)F)cc1`, the relative growth was inactive: 0.997.

As for `COc1ccc(NC(=O)Nc2cccc3c2O[C@H](CN(C)S(=O)(=O)c2cn(C)cn2)[C@@H](C)CN([C@@H](C)CO)C3=O)cc1`, the relative growth was inactive: 1.

In the case of `C[C@@H]1CN([C@@H](C)CO)C(=O)c2cccc(NC(=O)c3ccncc3)c2O[C@@H]1CN(C)Cc1ccc(C(=O)O)cc1`, the relative growth is inactive: 0.983.

As for `CC1=C(/C=C/C(C)=C/C=C/C(C)=C\C(=O)O)C(C)(C)CCC1`, the relative growth was inactive: 0.985.

As for `C[C@@H]1CCCCO[C@H](CN(C)S(=O)(=O)c2ccc(Cl)cc2)[C@@H](C)CN([C@H](C)CO)C(=O)c2cc(NC(=O)Cc3ccccc3)ccc2O1`, the relative growth is inactive: 1.01.

In the case of `C[C@@H]1CC=CC[C@@H](c2cccc(Cl)c2)NC(=O)[C@@H](Cc2ccccc2)N(C)C(=O)c2ccccc2O1`, the relative growth was inactive: 0.956.

With `COc1ccc(S(=O)(=O)Nc2ccc3c(c2)C(=O)N([C@@H](C)CO)C[C@@H](C)[C@H](CN(C)C(=O)Nc2cccc4ccccc24)OCCCC[C@H](C)O3)cc1`, the relative growth is inactive: 1.01.

Regarding `C[C@H]1CN([C@@H](C)CO)C(=O)c2cccc(NS(=O)(=O)c3cn(C)cn3)c2O[C@H]1CN(C)Cc1ccc2c(c1)OCO2`, the relative growth is inactive: 0.967.

`C[C@@H]1CN([C@H](C)CO)C(=O)CCCn2nncc2CO[C@H]1CN(C)S(=O)(=O)c1ccc(Oc2ccccc2)nc1`: the relative growth is inactive: 1.01.

`COc1ccc([C@H]2C/C=C\C[C@@H](c3cccc(Cl)c3)NC(=O)[C@H](c3ccccc3)CC(=O)N2)c(OC)c1`: the relative growth is inactive: 0.984.

As for `C[C@@H]1CCCCO[C@@H](CN(C)CC2CCCCC2)[C@H](C)CN([C@@H](C)CO)C(=O)c2cc(NC(=O)CCCN(C)C)ccc2O1`, the relative growth is inactive: 0.974.

With `NCc1ccc(-c2nc3ccccc3o2)cc1`, the relative growth is inactive: 1.01.

Take `COc1cc(/C=C/C(=O)CC2=N/C(=N/c3ccc(OC)c(OC)c3)S[C@H](c3ccc(O)c(OC)c3)C2)ccc1O`: the relative growth was inactive: 1.

For the compound `COc1ccc(NC(=O)Nc2ccc3c(c2)C(=O)N([C@@H](C)CO)C[C@@H](C)[C@H](CN(C)C(=O)Nc2ccc(F)cc2)OCCCC[C@@H](C)O3)cc1`, the relative growth is inactive: 1.04.

As for `C[C@@H]1CN([C@@H](C)CO)C(=O)c2cc(NC(=O)Nc3ccc4c(c3)OCO4)ccc2O[C@@H](C)CCCCO[C@H]1CN(C)C(=O)Nc1ccc(C(F)(F)F)cc1`, the relative growth was inactive: 1.03.

`CCOC(=O)c1[nH]c(C)c(C(=O)C2=C(O)C(=O)N(CCN3CCOCC3)[C@H]2c2cccc(OC)c2OC)c1C`: the relative growth is inactive: 0.996.

As for `Cc1cc(C(=O)Nc2cccc3c2O[C@H](CN(C)S(C)(=O)=O)[C@@H](C)CN([C@H](C)CO)C3=O)n(C)n1`, the relative growth was inactive: 0.984.

In the case of `C[C@H](CO)N1C[C@H](C)[C@H](CN(C)C(=O)NC2CCCCC2)OCCCC[C@H](C)Oc2ccc(NC(=O)Nc3cccc4ccccc34)cc2C1=O`, the relative growth was inactive: 1.04.

For `C[C@@H]1CN([C@@H](C)CO)C(=O)c2cc(NC(=O)CCC(F)(F)F)ccc2O[C@H]1CN(C)Cc1ccc(-c2ccccc2)cc1`, the relative growth is inactive: 0.986.

As to `Cc1noc(C)c1S(=O)(=O)Nc1ccc2c(c1)CC(=O)N([C@H](C)CO)C[C@@H](C)[C@@H](CN(C)C(=O)NC(C)C)O2`, the relative growth was inactive: 1.04.

Turning to `S=C1NCN(Cc2ccncc2)CN1`, the relative growth was inactive: 0.997.

`C[C@H](NC(=O)C[C@@H]1CC[C@H](NC(=O)CN2CCOCC2)[C@@H](CO)O1)c1ccccc1`: the relative growth was inactive: 0.976.

For the compound `C[C@@H]1CN([C@H](C)CO)C(=O)c2ccccc2-c2ccccc2CO[C@@H]1CN(C)Cc1ccc(-c2ccccc2)cc1`, the relative growth was inactive: 1.03.

Take `NC(=O)[C@@H]1C(=O)C[C@@H]2C[C@@H]3Cc4cccc(O)c4C(=O)[C@@H]3C(=O)[C@]2(O)C1=O`: the relative growth was active: 0.164.

`C[C@@H]1CN([C@H](C)CO)C(=O)c2cc(NS(=O)(=O)c3cccs3)ccc2O[C@@H](C)CCCCO[C@@H]1CN(C)Cc1ccc(C(F)(F)F)cc1`: the relative growth is inactive: 1.09.

Consider `C[C@@H]1CN([C@H](C)CO)C(=O)c2cc(NC(=O)Nc3ccc(C(F)(F)F)cc3)ccc2O[C@@H]1CN(C)Cc1ccc2c(c1)OCO2`, for which the relative growth was inactive: 0.959.

With `C[C@@H]1CN([C@@H](C)CO)S(=O)(=O)c2ccc(-c3cccnc3)cc2O[C@H]1CN(C)C(=O)c1cccc(F)c1`, the relative growth was inactive: 1.02.

In the case of `Cc1noc(C)c1S(=O)(=O)Nc1ccc2c(c1)CC(=O)N([C@@H](C)CO)C[C@H](C)[C@@H](CN(C)S(=O)(=O)c1ccc(F)cc1)O2`, the relative growth is inactive: 1.

In the case of `C[C@H]1CN([C@@H](C)CO)C(=O)c2cccc(NS(=O)(=O)c3ccccc3)c2O[C@H]1CN(C)C(=O)Nc1cccc2ccccc12`, the relative growth was inactive: 0.997.

As to `C[C@H](CO)N1C[C@H](C)[C@H](CN(C)Cc2ccccc2)Oc2c(NC(=O)C3CCOCC3)cccc2C1=O`, the relative growth was inactive: 0.995.

On to `C[C@@H]1CN([C@H](C)CO)C(=O)Cc2cc(NC(=O)Nc3cccc4ccccc34)ccc2O[C@H]1CN(C)Cc1ccc(C(=O)O)cc1`, for which the relative growth is inactive: 0.988.

Turning to `COCC(=O)N1C[C@]2(C1)CN([C@@H](CO)c1[nH]c3cc(ccc3c12)OC)S(=O)(=O)C`, the relative growth is inactive: 1.01.

`C[C@H](CO)N1C[C@H](C)[C@@H](CN(C)C(=O)Nc2cccc3ccccc23)OCCCC[C@H](C)Oc2ccc(NS(=O)(=O)c3ccccc3)cc2C1=O`: the relative growth is inactive: 1.03.

As for `CN1CCN(C(=O)C[C@H]2CC[C@H]3[C@@H](COc4ccc(NC(=O)c5cscn5)cc4C(=O)N3C)O2)CC1`, the relative growth was inactive: 1.02.

In the case of `C[C@@H]1CN([C@@H](C)CO)C(=O)c2cc(C#Cc3ccccc3F)cnc2O[C@@H]1CN(C)C(=O)c1ccc2c(c1)OCO2`, the relative growth was inactive: 1.02.

Turning to `CC(=O)NCCCC[C@@H]1NC(=O)[C@H]2C[C@@H](C(=O)NCCCCCCN(C)C)[C@@H](c3ccc(O)cc3)N2C1=O`, the relative growth was inactive: 0.947.

Turning to `C[C@H](CO)N1C[C@H](C)[C@H](CN(C)C(=O)Nc2ccc(C(F)(F)F)cc2)OCCCC[C@H](C)Oc2ccc(NC(=O)CCC(F)(F)F)cc2C1=O`, the relative growth was inactive: 0.973.

With `O=C1c2ccccc2[C@](Cc2ccccc2I)(C(=O)NCc2ccccc2)[C@H](c2ccc(CO)cc2)N1Cc1ccccc1C(F)(F)F`, the relative growth was inactive: 1.02.

`CCCNC(=O)C[C@@H]1CC[C@@H]2[C@H](COc3ccc(NC(=O)c4ccc5c(c4)OCO5)cc3C(=O)N2C)O1`: the relative growth is inactive: 0.984.

Turning to `CCCCOc1ccc([C@@H]2c3c(oc4ccc(Br)cc4c3=O)C(=O)N2CCCN2CCOCC2)cc1`, the relative growth is inactive: 0.975.

For the compound `NC(=O)c1ccc[n+](CC(=O)c2ccccc2)c1`, the relative growth was inactive: 1.03.

In the case of `COCC(=O)N[C@H]1C=C[C@H](CC(=O)N2CCCCC2)O[C@H]1CO`, the relative growth was inactive: 0.976.

With `C[C@@H]1CN([C@H](C)CO)C(=O)c2cccc(NS(=O)(=O)c3ccc(F)cc3)c2O[C@H]1CN(C)S(=O)(=O)c1cccs1`, the relative growth was inactive: 0.996.

`C[C@@H]1CN([C@@H](C)CO)C(=O)c2cc(NC(=O)Nc3ccccc3)ccc2O[C@@H](C)CCCCO[C@@H]1CN(C)Cc1ccc2c(c1)OCO2`: the relative growth was inactive: 0.975.

Consider `CC(C)NC(=O)N(C)C[C@@H]1Oc2c(NC(=O)Nc3ccc4c(c3)OCO4)cccc2C(=O)N([C@H](C)CO)C[C@@H]1C`, for which the relative growth is inactive: 0.996.

Regarding `C[C@@H]1CN([C@@H](C)CO)S(=O)(=O)c2ccc(C#CC3CC3)cc2O[C@@H]1CN(C)C(=O)c1cccc(F)c1`, the relative growth was inactive: 1.06.

With `COc1ccc(NC(=O)Nc2ccc3c(c2)C(=O)N([C@@H](C)CO)C[C@@H](C)[C@@H](CN(C)Cc2ccc4c(c2)OCO4)OCCCC[C@@H](C)O3)cc1`, the relative growth was inactive: 0.988.

On to `C[C@@H]1CCCCO[C@@H](CN(C)C(=O)Nc2cccc3ccccc23)[C@H](C)CN([C@@H](C)CO)C(=O)c2cc(NC(=O)Nc3ccc4c(c3)OCO4)ccc2O1`, for which the relative growth is inactive: 1.06.

Turning to `C[C@@H]1CCCCO[C@H](CN(C)C(=O)Nc2ccccc2)[C@@H](C)CN([C@H](C)CO)C(=O)c2cc(NC(=O)Nc3cccc4ccccc34)ccc2O1`, the relative growth is inactive: 0.977.

As to `COc1ccc(CN(C)C[C@H]2Oc3ccc(NC(=O)Nc4cccc5ccccc45)cc3CC(=O)N([C@@H](C)CO)C[C@H]2C)cc1`, the relative growth was inactive: 0.991.

For `C[C@@H]1CN([C@@H](C)CO)C(=O)c2cc(NC(=O)CCN3CCOCC3)ccc2O[C@@H]1CN(C)S(=O)(=O)c1ccccc1`, the relative growth is inactive: 0.994.

As to `CO[C@@H]1CN(C)C(=O)c2ccc(NC(=O)Nc3ccc4c(c3)OCO4)cc2OC[C@@H](C)N(C(C)=O)C[C@H]1C`, the relative growth was inactive: 1.
